Laboratory results published in the supplement of paper PMC10369915.
The list shows a part of the results. Rule as the data show it: active = 3.2 or more and inactive = the rest. Most of these values are background signal.

What was measured:
Assay in all cases: enrichment score (SH2-bound / input frequency) (ratio); bacterial display of known human phosphotyrosine sites (pTyr-Var adds point mutants) read by sequencing; higher = stronger binding; tyrosines were phosphorylated by kinases first
Details in all cases: peptide library: Human pTyr
SHP2 C-SH2 domain E139D = biological target: SHP2 C-SH2 domain E139D
[1] = biological target: SHP2 C-SH2 domain wild-type
SHP2 N-SH2 domain L43F = biological target: SHP2 N-SH2 domain L43F
SHP2 N-SH2 domain T42A = biological target: SHP2 N-SH2 domain T42A
SHP2 N-SH2 domain T52S = biological target: SHP2 N-SH2 domain T52S
[2] = biological target: SHP2 N-SH2 domain wild-type
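Also: displayed peptides selected on beads carrying the immobilized SH2 domain, with library peptides lacking any tyrosine serving as negative controls.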

Binder	enrichment score (SHP2 C-SH2 domain E139D)	enrichment score [1]	enrichment score (SHP2 N-SH2 domain L43F)	enrichment score (SHP2 N-SH2 domain T42A)	enrichment score (SHP2 N-SH2 domain T52S)	enrichment score [2]
ASAPIGRYTMALQIF [TGM3_HUMAN_111]	inactive: 1.68	inactive: 1.63	inactive: 1.77	inactive: 1.49	inactive: 1.72	inactive: 2.06
EEITEEQYYMMRRYE [THEMIS_HUMAN_540]	inactive: 1.55	inactive: 1.41	inactive: 1.38	inactive: 0.961	inactive: 1.39	inactive: 1.77
EITEEQAYMMRRAES [THEMIS_HUMAN_541_YA]	inactive: 0.647	inactive: 0.589	inactive: 0.609	inactive: 0.523	inactive: 0.641	inactive: 0.688
ESMSQAPYCVRNVRF [THIM_HUMAN_127]	inactive: 1.33	inactive: 0.995	inactive: 0.914	inactive: 1.16	inactive: 1.14	inactive: 1.15
EIEVKKEYLSSLQPR [THOC5_HUMAN_225]	inactive: 0.769	inactive: 0.592	inactive: 0.651	inactive: 0.683	inactive: 0.771	inactive: 0.892
NRGGYGNYRSNWQNY [THRAP3_HUMAN_107]	inactive: 2.87	inactive: 2.8	inactive: 2.2	inactive: 2.51	inactive: 2.98	active: 3.37
DRPQSSIYDPFAGMK [BCAP_HUMAN_594]	inactive: 0.838	inactive: 0.592	inactive: 0.74	inactive: 0.637	inactive: 0.763	inactive: 0.708
FLLAFEHYINYRKHH [THRB_HUMAN_406]	active: 3.28	active: 3.77	active: 4.05	active: 3.31	active: 3.82	active: 4.41
FLLAFEHYINARKHH [THRB_HUMAN_406_YA]	active: 3.54	inactive: 2.82	active: 3.61	inactive: 2.73	inactive: 2.74	active: 3.51
MLEERKTYVNTTLYE [TIE2_HUMAN_1102]	inactive: 0.857	inactive: 0.596	inactive: 0.76	inactive: 0.613	inactive: 0.953	inactive: 0.886
TYVNTTLYEKFTYAG [TIE2_HUMAN_1108]	inactive: 1.77	inactive: 1.71	inactive: 1.83	inactive: 1.99	inactive: 1.72	inactive: 2.43
TAVNTTLYEKFTAAG [TIE2_HUMAN_1108_YA]	inactive: 0.684	inactive: 0.832	inactive: 0.404	inactive: 0.528	inactive: 0.604	inactive: 0.969
AAQDLVSYLEGSTAS [TIRAP_HUMAN_106]	inactive: 0.767	inactive: 0.691	inactive: 0.646	inactive: 0.643	inactive: 0.693	inactive: 0.701
SGLSRAAYPPELRFM [TIRAP_HUMAN_187]	inactive: 0.803	inactive: 0.638	inactive: 0.76	inactive: 0.647	inactive: 1.05	inactive: 0.782
EQFEYAAYIIHAYKD [TLR3_HUMAN_759]	inactive: 2.62	inactive: 3.11	inactive: 2.84	inactive: 2.61	inactive: 2.87	active: 4.14
NVLAKALYDNVAESP [BCAR1_HUMAN_12]	inactive: 0.532	inactive: 0.489	inactive: 0.631	inactive: 0.648	inactive: 0.645	inactive: 0.657
NSPGNAFYSNVLYRP [TMIG2_HUMAN_192]	inactive: 0.94	inactive: 1.21	inactive: 0.797	inactive: 0.922	inactive: 0.74	inactive: 0.855
IRRRSSNYRAAATEP [TNNI3_HUMAN_26_YA]	inactive: 1.01	inactive: 0.557	inactive: 0.879	inactive: 0.609	inactive: 0.571	inactive: 0.529

Binder	enrichment score (SHP2 C-SH2 domain E139D)	enrichment score [1]	enrichment score (SHP2 N-SH2 domain L43F)	enrichment score (SHP2 N-SH2 domain T42A)	enrichment score (SHP2 N-SH2 domain T52S)	enrichment score [2]
AKMLDHEYTTKEIFR [TOP1_HUMAN_268]	inactive: 0.803	inactive: 0.849	inactive: 0.741	inactive: 0.804	inactive: 0.958	inactive: 0.743
SVTAPSPYAQPSSTF [TP63_HUMAN_149]	inactive: 0.609	inactive: 0.435	inactive: 0.604	inactive: 0.524	inactive: 0.527	inactive: 0.533
DDLEDELYAQKLKYK [TPM1_HUMAN_261]	inactive: 1.02	inactive: 1.1	inactive: 1.01	inactive: 0.78	inactive: 0.942	inactive: 0.847
DDLEDEVYAQKMKYK [TPM2_HUMAN_261]	inactive: 1.18	inactive: 1.02	inactive: 1.26	inactive: 1.39	inactive: 1.09	inactive: 1.49
DDLEDEVYAQKMKAK [TPM2_HUMAN_261_YA]	inactive: 1.01	inactive: 0.818	inactive: 1.04	inactive: 0.908	inactive: 1.03	inactive: 1.01
MEGKRSPYAGLQLGA [TRI29_HUMAN_106]	inactive: 0.873	inactive: 1.79	inactive: 0.58	inactive: 1.4	inactive: 0.816	inactive: 0.837
KDNFDSFYSEVAELG [TRIO_HUMAN_2796]	inactive: 0.85	inactive: 0.602	inactive: 0.593	inactive: 0.802	inactive: 0.754	inactive: 0.494
APGPQDIYDVPPVRG [BCAR1_HUMAN_249]	inactive: 0.591	inactive: 0.568	inactive: 0.713	inactive: 0.639	inactive: 0.403	inactive: 0.43
DPGKNETYQYYGFSH [TRPV4_HUMAN_805]	inactive: 0.822	inactive: 1.23	inactive: 0.811	inactive: 0.939	inactive: 0.672	inactive: 0.648
AEDSEIRYLSADSGD [TTF1_HUMAN_476]	inactive: 1.16	inactive: 1.76	inactive: 1.08	inactive: 1.09	inactive: 1.02	inactive: 1.13
GTTEEMKYVLGQLVG [TTK_HUMAN_811]	inactive: 0.79	inactive: 0.565	inactive: 0.743	inactive: 0.532	inactive: 0.614	inactive: 0.6
ELTADFLYEEVHPKQ [TWF1_HUMAN_309]	inactive: 0.804	inactive: 0.889	inactive: 0.861	inactive: 0.595	inactive: 0.791	inactive: 1.08
KIQVKALYDFLPREP [TXK_HUMAN_91]	inactive: 1.15	inactive: 0.854	inactive: 0.604	inactive: 0.761	inactive: 0.962	inactive: 0.756
AVPEGHEYYRVREDG [TYK2_HUMAN_1054]	inactive: 1.15	inactive: 0.815	inactive: 0.76	inactive: 0.941	inactive: 0.854	inactive: 0.815
VPEGHEYYRVREDGD [TYK2_HUMAN_1055]	inactive: 1.3	inactive: 1.07	inactive: 0.824	inactive: 1.06	inactive: 1.1	inactive: 1.61
FGLSRKIYSGDYYRQ [TYRO3_HUMAN_681]	inactive: 1.25	inactive: 1.15	inactive: 1.24	inactive: 1.12	inactive: 1.32	inactive: 1.24
KIASGDAYRQGCASK [TYRO3_HUMAN_686_YA]	inactive: 1.14	inactive: 0.897	inactive: 0.9	inactive: 1.03	inactive: 1.05	inactive: 0.989
SASQDPLYINIERAE [TYRO3_HUMAN_804]	inactive: 1.04	inactive: 0.777	inactive: 0.814	inactive: 0.789	inactive: 1.16	inactive: 1.03
